# According to the supplement of paper PMC8728848:
# The other results are listed elsewhere or left out.
# B1: BT3172pd (Bacteroides thetaiotaomicron) (protein)
# chain: MLPLRAEHYYYKQISLKEGLPSNVRCILRDEQGFIWIGTKAGLGKFDGHQLKRYKHQANDPHSLLHNLIYQIAEDKQHNIWILTEKGIARYQQQSNNFTFPTDEEGNYITAYSFCLVPDGILFGGKDRIYKYSYKDSSLRLLQYFNANSFKITALSVWDSKTLLCCSRWTGLYLVDLQTGEHRRPPFDCGPEITSMITDSKNRIWIAPYSGGLRCYSRDGKLSASYTTHNSSLSNDIVLSLAEREEQLWIGTDGGGINILHPETGEISQLEYIPGRENYSLPANSILCLHNDYNNNVWAGSTCNGLISIREVSMKTYTDVVPGNDRGLSNGTVRSLYRQSPDSIWIGTDGGGINLFSPHTEKFTHYSSTWGDKVAFISGFTPGKLLISLFSKGVFVFNPATGEKQPFTIIDKETTTRLCNRGKSVNLYQNTPNTVLFLGDHIYQYHLKEKKFSTITEEEGKDIVGTLVPFDHQENLTYINDIKHIYELDDQTSRLKTVFECYTDTVISSVSHDEQGHFWIGSNFGLIHYDPVLKSRTLVPTNLFTEINMVLCDQKGKVWIGVDNMLFAYFIKEQKFVLFGESNGAIQNEYLPNARLVNEQGDAYIGGVKGMLRIDGQLLLNTSEMPELQLLDITINGESANHEWYNHPAKISVPWNSNISIRIMSREEDIFRQKIYRYQIEGLNNEYTESYNPELVIRSLLPGSYRIMASCTAKDGSWIPDQQVLELTVLPPWYRTHHHHHH
# Experiments:
# Assay in all cases: glycan array binding signal (z-score within array); higher = stronger binding
# Conditions in all cases: glycan notation: IUPAC condensed, linker removed
# [1] = biological target: Gal(b1-3)GlcNAc(b1-2)Man(a1-3)[Gal(b1-3)GlcNAc(b1-2)Man(a1-6)]Man(b1-4)GlcNAc(b1-4)[Fuc(a1-6)]GlcNAc
# Procedure, shortened: (§1)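 Arrays were curated from the Consortium for Functional Glycomics database, 3228 in total, and kept only where the protein sequence was available. Binding is expressed as a within-array Z-score. This score was averaged across arrays of the same protein sequence at different concentrations or buffers and across linkers, and negative values can be read as non-binding.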
# [2] = biological target: Gal(b1-3)GlcNAc(b1-2)Man(a1-3)[GlcNAc(b1-4)][Gal(b1-3)GlcNAc(b1-2)Man(a1-6)]Man(b1-4)GlcNAc(b1-4)GlcNAc
# Procedure, shortened: as §1
# [3] = biological target: Gal(b1-3)GlcNAc(b1-2)[Gal(b1-3)GlcNAc(b1-6)]Man(a1-6)[Gal(b1-3)GlcNAc(b1-2)Man(a1-3)]Man(b1-4)GlcNAc(b1-4)GlcNAc
# Procedure, shortened: as §1
# [4] = biological target: Gal(b1-3)GlcNAc(b1-3)Gal(b1-3)GlcNAc
# Procedure, shortened: as §1
# [5] = biological target: Gal(b1-3)GlcNAc(b1-3)Gal(b1-4)Glc
# Procedure, shortened: as §1
# [6] = biological target: Gal(b1-3)GlcNAc(b1-3)Gal(b1-4)GlcNAc
# Procedure, shortened: as §1
# [7] = biological target: Gal(b1-3)GlcNAc(b1-3)Gal(b1-4)GlcNAc(b1-2)Man(a1-3)[Gal(b1-3)GlcNAc(b1-3)Gal(b1-4)GlcNAc(b1-2)Man(a1-6)]Man(b1-4)GlcNAc(b1-4)GlcNAc
# Procedure, shortened: as §1
# [8] = biological target: Gal(b1-3)GlcNAc(b1-3)Gal(b1-4)GlcNAc(b1-2)[Gal(b1-3)GlcNAc(b1-3)Gal(b1-4)GlcNAc(b1-6)]Man(a1-6)[Gal(b1-3)GlcNAc(b1-3)Gal(b1-4)GlcNAc(b1-2)Man(a1-3)]Man(b1-4)GlcNAc(b1-4)[Fuc(a1-6)]GlcNAc
# Procedure, shortened: as §1
# [9] = biological target: Gal(b1-3)GlcNAc(b1-3)Gal(b1-4)GlcNAc(b1-3)Gal(b1-4)GlcNAc(b1-2)[Gal(b1-3)GlcNAc(b1-3)Gal(b1-4)GlcNAc(b1-3)Gal(b1-4)GlcNAc(b1-6)]Man(a1-6)[Gal(b1-3)GlcNAc(b1-3)Gal(b1-4)GlcNAc(b1-3)Gal(b1-4)GlcNAc(b1-2)Man(a1-3)]Man(b1-4)GlcNAc(b1-4)[Fuc(a1-6)]GlcNAc
# Procedure, shortened: as §1
# [10] = biological target: Gal(b1-3)GlcNAc(b1-3)Gal(b1-4)GlcNAc(b1-6)[Gal(b1-3)GlcNAc(b1-3)]Gal(b1-4)Glc
# Procedure, shortened: as §1
# [11] = biological target: Gal(b1-3)GlcNAc(b1-3)Gal(b1-4)[Fuc(a1-3)]GlcNAc
# Procedure, shortened: as §1
# [12] = biological target: Gal(b1-3)GlcNAc(b1-3)Gal(b1-4)[Fuc(a1-3)]GlcNAc(b1-6)[Gal(b1-3)GlcNAc(b1-3)]Gal(b1-4)Glc
# Procedure, shortened: as §1
# [13] = biological target: Gal(b1-3)GlcNAc(b1-3)GalNAc
# Procedure, shortened: as §1
# [14] = biological target: Gal(b1-3)GlcNAc(b1-6)Gal(b1-4)GlcNAc
# Procedure, shortened: as §1
# [15] = biological target: Gal(b1-3)GlcNAc(b1-6)GalNAc
# Procedure, shortened: as §1
# [16] = biological target: Gal(b1-3)GlcNAc(b1-6)[Gal(b1-3)]GalNAc
# Procedure, shortened: as §1
# Gal(b1-3)GlcNAc6S = biological target: Gal(b1-3)GlcNAc6S
# Procedure, shortened: as §1
# [17] = biological target: Gal(b1-3)[Fuc(a1-4)]GlcNAc
# Procedure, shortened: as §1
# [18] = biological target: Gal(b1-3)[Fuc(a1-4)]GlcNAc(b1-2)Man
# Procedure, shortened: as §1
# [19] = biological target: Gal(b1-3)[Fuc(a1-4)]GlcNAc(b1-2)Man(a1-3)[Gal(b1-3)[Fuc(a1-4)]GlcNAc(b1-2)Man(a1-6)]Man(b1-4)GlcNAc(b1-4)[Fuc(a1-6)]GlcNAc
# Procedure, shortened: as §1
# [20] = biological target: Gal(b1-3)[Fuc(a1-4)]GlcNAc(b1-3)Gal(b1-3)[Fuc(a1-4)]GlcNAc
# Procedure, shortened: as §1
# [21] = biological target: Gal(b1-3)[Fuc(a1-4)]GlcNAc(b1-3)Gal(b1-4)[Fuc(a1-3)]GlcNAc
# Procedure, shortened: as §1
# [22] = biological target: Gal(b1-3)[Fuc(a1-4)]GlcNAc(b1-6)GalNAc
# Procedure, shortened: as §1
# [23] = biological target: Gal(b1-3)[GlcNAc(b1-6)]GalNAc
# Procedure, shortened: as §1
# [24] = biological target: Gal(b1-3)[Neu5Ac(a2-6)]GalNAc
# Procedure, shortened: as §1
# [25] = biological target: Gal(b1-3)[Neu5Ac(a2-6)]GlcNAc(b1-4)Gal(b1-4)Glc
# Procedure, shortened: as §1
# [26] = biological target: Gal(b1-3)[Neu5Ac(b2-6)]GalNAc
# Procedure, shortened: as §1
# Gal(b1-4)Gal = biological target: Gal(b1-4)Gal
# Procedure, shortened: as §1
# [27] = biological target: Gal(b1-4)GalNAc(a1-3)[Fuc(a1-2)]Gal(b1-4)GlcNAc
# Procedure, shortened: as §1
# [28] = biological target: Gal(b1-4)GalNAc(b1-3)[Fuc(a1-2)]Gal(b1-4)GlcNAc
# Procedure, shortened: as §1
binder,measurement,setting,value
B1,glycan array binding signal (z-score),[1],-0.445
same,glycan array binding signal (z-score),[2],0.825
same,glycan array binding signal (z-score),[3],-0.006
same,glycan array binding signal (z-score),[4],-0.412
same,glycan array binding signal (z-score),[5],0.004
same,glycan array binding signal (z-score),[6],-0.069
same,glycan array binding signal (z-score),[7],0.122
same,glycan array binding signal (z-score),[8],-0.073
same,glycan array binding signal (z-score),[9],-0.261
same,glycan array binding signal (z-score),[10],0.805
same,glycan array binding signal (z-score),[11],-0.172
same,glycan array binding signal (z-score),[12],-0.252
same,glycan array binding signal (z-score),[13],-0.455
same,glycan array binding signal (z-score),[14],-0.291
same,glycan array binding signal (z-score),[15],-0.404
same,glycan array binding signal (z-score),[16],-0.299
same,glycan array binding signal (z-score),Gal(b1-3)GlcNAc6S,-0.026
same,glycan array binding signal (z-score),[17],-0.208
same,glycan array binding signal (z-score),[18],0.249
same,glycan array binding signal (z-score),[19],-0.393
same,glycan array binding signal (z-score),[20],-0.769
same,glycan array binding signal (z-score),[21],0.172
same,glycan array binding signal (z-score),[22],-0.57
same,glycan array binding signal (z-score),[23],0.293
same,glycan array binding signal (z-score),[24],0.387
same,glycan array binding signal (z-score),[25],-0.294
same,glycan array binding signal (z-score),[26],-0.596
same,glycan array binding signal (z-score),Gal(b1-4)Gal,-0.305
same,glycan array binding signal (z-score),[27],-0.349
same,glycan array binding signal (z-score),[28],-0.489
